{"source": "paper PMC4336329", "about": "(PLoS ONE, 2015)", "note": "The whole screen tested about 310,000 compounds, of which about 14,000 (4.5%) showed an effect of 50% or more. Effects have a minus sign here. This is one part of the list.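 Further: peak tail current of the secondary pulse compared with the same well before compound.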"}
{"biological_target": "human ether-à-go-go-related gene (hERG) potassium channel (human, UniProt Q12809)", "sequence (Q12809 whole entry, looked up)": "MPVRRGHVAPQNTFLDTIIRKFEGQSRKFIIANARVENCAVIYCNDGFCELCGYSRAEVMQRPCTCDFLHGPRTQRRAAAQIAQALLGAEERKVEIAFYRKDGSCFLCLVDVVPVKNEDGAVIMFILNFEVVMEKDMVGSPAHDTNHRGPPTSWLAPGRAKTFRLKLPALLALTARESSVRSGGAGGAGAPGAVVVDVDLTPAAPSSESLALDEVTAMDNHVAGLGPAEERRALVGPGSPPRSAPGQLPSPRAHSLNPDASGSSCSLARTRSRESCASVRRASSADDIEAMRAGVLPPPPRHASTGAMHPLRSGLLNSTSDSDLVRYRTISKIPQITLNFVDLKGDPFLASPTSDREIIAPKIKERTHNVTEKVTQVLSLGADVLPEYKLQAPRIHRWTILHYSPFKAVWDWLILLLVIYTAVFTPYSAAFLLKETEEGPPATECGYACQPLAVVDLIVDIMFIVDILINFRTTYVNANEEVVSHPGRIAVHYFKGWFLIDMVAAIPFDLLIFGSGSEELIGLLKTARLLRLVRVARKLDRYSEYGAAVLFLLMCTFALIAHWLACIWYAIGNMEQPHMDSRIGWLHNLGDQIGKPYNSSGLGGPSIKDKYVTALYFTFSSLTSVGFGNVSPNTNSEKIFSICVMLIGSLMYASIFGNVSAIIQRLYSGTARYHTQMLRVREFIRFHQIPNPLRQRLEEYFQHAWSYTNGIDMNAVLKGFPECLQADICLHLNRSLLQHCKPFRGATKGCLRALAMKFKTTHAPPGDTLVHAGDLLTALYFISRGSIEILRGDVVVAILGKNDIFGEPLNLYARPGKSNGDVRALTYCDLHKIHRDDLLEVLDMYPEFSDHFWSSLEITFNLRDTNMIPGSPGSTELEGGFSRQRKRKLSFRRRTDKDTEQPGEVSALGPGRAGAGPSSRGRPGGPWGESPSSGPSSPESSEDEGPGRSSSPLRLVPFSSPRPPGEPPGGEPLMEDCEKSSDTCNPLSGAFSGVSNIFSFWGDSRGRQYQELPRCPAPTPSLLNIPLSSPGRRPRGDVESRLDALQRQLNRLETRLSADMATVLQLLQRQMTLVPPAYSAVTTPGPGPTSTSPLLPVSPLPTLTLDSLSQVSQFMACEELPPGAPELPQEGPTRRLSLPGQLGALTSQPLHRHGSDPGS", "test": "primary screen, population patch clamp on CHO cells stably expressing hERG", "units": {"hERG current change (%, negative = inhibition) at 10uM": "%"}}
{"smiles": "O=C(Nc1ccc2ccccc2c1)c1onc2c1CCCC2", "hERG current change (%, negative = inhibition) at 10uM": 12.8}
{"smiles": "O=C(NC1CCCCCC1)C1CCN(C(=O)c2ccc(Cl)cc2)CC1", "hERG current change (%, negative = inhibition) at 10uM": -20.4}
{"smiles": "CCOC(=O)C1=C(C)Nc2nc(C)nn2C1c1ccc(OC)c(OC)c1", "note": "(stereo not shown)", "hERG current change (%, negative = inhibition) at 10uM": 5.99}
{"smiles": "COc1ccc(N2CC(C(=O)NCCc3ccc(OC)c(OC)c3)CC2=O)cc1", "note": "(stereo not shown)", "hERG current change (%, negative = inhibition) at 10uM": -0.856}
{"smiles": "NC12CCc3c(no[n+]3[O-])C1(O)CC(c1ccccc1)=[N+]2[O-]", "note": "(stereo not shown)", "hERG current change (%, negative = inhibition) at 10uM": 11.1}
{"smiles": "Cc1csc(SCC(=O)Nc2sccc2C#N)n1", "hERG current change (%, negative = inhibition) at 10uM": -0.612}
{"smiles": "CCN(CCCNC(=O)CNC(=O)c1nn(-c2ccc(OC)cc2)c(=O)c2ccccc12)c1cccc(C)c1", "hERG current change (%, negative = inhibition) at 10uM": -20.3}
{"smiles": "CC(=O)C1C2c3ccccc3OC1(C)N=c1s/c(=C/c3cn(C)nc3C)c(=O)n12", "note": "(stereo not shown)", "hERG current change (%, negative = inhibition) at 10uM": -0.454}
{"smiles": "CNC(=S)Nc1cc(C(=O)N2CCCC2)ccc1N1CCCC1", "hERG current change (%, negative = inhibition) at 10uM": 28.1}
{"smiles": "O=C(Nc1ccc(O)cc1)c1ccccc1OCc1ccccc1", "hERG current change (%, negative = inhibition) at 10uM": 10.8}
{"smiles": "Cc1csc2c(=O)sc(NC(=O)c3ccc(F)cc3Cl)nc12", "hERG current change (%, negative = inhibition) at 10uM": 10.6}
{"smiles": "CCCCC(=O)Nc1ccc(N2CCN(C(=O)CC)CC2)cc1", "hERG current change (%, negative = inhibition) at 10uM": -2.35}
{"smiles": "C[C@@H]1CC=C[C@H]2[C@H]1C(=O)N(Cc1ccccc1)[C@H]2c1ccc2ccccc2c1", "hERG current change (%, negative = inhibition) at 10uM": 3.52}
{"smiles": "CCOc1ccc(NC(=S)N2CCC(NC(=O)C3CCCCC3)CC2)cc1", "hERG current change (%, negative = inhibition) at 10uM": 14.7}
{"smiles": "COc1cc(NC(=O)c2cc(-c3cccnc3)nc3ccc(Br)cc23)cc(OC)c1", "hERG current change (%, negative = inhibition) at 10uM": -29.3}
{"smiles": "Cc1ccc(NC(=O)C2CCN(C(=O)c3ccccc3C)CC2)cc1", "hERG current change (%, negative = inhibition) at 10uM": 27.7}
{"smiles": "Cn1c(-c2cccc([N+](=O)[O-])c2)cnc1NCc1cccc([N+](=O)[O-])c1.O=C(O)C(=O)O", "hERG current change (%, negative = inhibition) at 10uM": -77.8}
{"smiles": "CCOC(=O)N1CCN(C(=S)NC)CC1", "hERG current change (%, negative = inhibition) at 10uM": 10.6}
{"smiles": "COc1ccc(Cn2ccnc2SCC(=O)NC2CCCC2)cc1", "hERG current change (%, negative = inhibition) at 10uM": 9.94}
{"smiles": "COc1nc(NCCc2ccc(OC)c(OC)c2)nc(Nc2ccccc2)n1", "hERG current change (%, negative = inhibition) at 10uM": -5.66}
{"smiles": "O=C(Nc1cn(-c2ccccc2)nc1-c1ccc(F)cc1)c1ccccc1", "hERG current change (%, negative = inhibition) at 10uM": 15.6}
{"smiles": "Cc1ccc(C(C(=O)NC2CCCC2)N(Cc2cccs2)C(=O)CNC(=O)c2cccs2)o1", "note": "(stereo not shown)", "hERG current change (%, negative = inhibition) at 10uM": -31.6}
{"smiles": "C/C(=N/Nc1nc(-c2ccc(Cl)cc2)cs1)c1cccs1", "hERG current change (%, negative = inhibition) at 10uM": 9.89}
{"smiles": "COc1ccc(CCNC(=O)CCSc2nc(-c3ccco3)cc(C(F)(F)F)n2)cc1", "hERG current change (%, negative = inhibition) at 10uM": 12.6}
{"smiles": "Cc1ccc2nc(-c3ccc(NC(=O)c4ccco4)cc3)[nH]c2c1", "hERG current change (%, negative = inhibition) at 10uM": -9.74}
{"smiles": "Br.CCn1c(=N)n(CC(=O)c2ccc(OC)cc2)c2ccccc21", "hERG current change (%, negative = inhibition) at 10uM": -18.6}
{"smiles": "Cc1nc(N)sc1-c1csc(N(C)c2ccc(O)cc2)n1", "hERG current change (%, negative = inhibition) at 10uM": 0.00228}
{"smiles": "CCOc1ccc(CCNC(=O)CSc2nc3ncc(Cl)cc3[nH]2)cc1OCC", "hERG current change (%, negative = inhibition) at 10uM": 10.8}
{"smiles": "Oc1ccc(O)c(Cc2nc3ccccc3[nH]2)c1", "hERG current change (%, negative = inhibition) at 10uM": -35.9}
{"smiles": "CCCCCCN1CC(O)=C(c2nc3ccccc3[nH]2)C1=N", "hERG current change (%, negative = inhibition) at 10uM": -8.94}
{"smiles": "CCCCN=C1NC(=O)C(CC(=O)NCCc2ccc(OC)cc2)S1", "note": "(stereo not shown)", "hERG current change (%, negative = inhibition) at 10uM": 4.33}
{"smiles": "COC(=O)Cn1cnc2c(C#N)c3n(c2c1=O)CCCC3", "hERG current change (%, negative = inhibition) at 10uM": -9.83}
{"smiles": "CC(=O)O.CC(=O)Oc1ccc2c(c1)OC(c1ccccc1)CC21CC(C)(C)NC(=O)N1", "note": "(stereo not shown)", "hERG current change (%, negative = inhibition) at 10uM": 3.82}
{"smiles": "O=C(Nc1ccc([N+](=O)[O-])cc1)c1ccccc1F", "hERG current change (%, negative = inhibition) at 10uM": -7.78}
{"smiles": "N#Cc1ccc(N2C(=O)[C@@H]3C(C(=O)c4ccc5ccccc5n4)=NN[C@@H]3C2=O)cc1", "hERG current change (%, negative = inhibition) at 10uM": -4.57}
{"smiles": "O=C(Cc1c(F)cccc1Cl)Nc1ccc(S(=O)(=O)NCC2CCCO2)cc1", "note": "(stereo not shown)", "hERG current change (%, negative = inhibition) at 10uM": 3.76}
{"smiles": "CC1(C)CC(=O)C(C(C2=C(O)CC(C)(C)CC2=O)c2ccc(Br)s2)C(=O)C1", "note": "(stereo not shown)", "hERG current change (%, negative = inhibition) at 10uM": -9.92}
{"smiles": "Cc1cc(C)cc(C(=O)Nc2ccc(NC(=O)c3cccs3)cc2)c1", "hERG current change (%, negative = inhibition) at 10uM": -6.6}
{"smiles": "Cc1ccc(S(=O)(=O)N2CCC(c3nc4c(nnn4Cc4ccccc4)c(=O)[nH]3)CC2)cc1", "hERG current change (%, negative = inhibition) at 10uM": -26.6}
{"smiles": "CCN1CCN(CC(=O)Nc2cc(C)on2)CC1.O=C(O)C(=O)O", "hERG current change (%, negative = inhibition) at 10uM": 19.5}
{"smiles": "CCOc1ccccc1NC(=O)COC(=O)c1cccc(-c2ccc(OC(C)=O)cc2)c1", "hERG current change (%, negative = inhibition) at 10uM": -3.87}
{"smiles": "CCCN1CCN(CCCNC(=O)CCCn2nc(C)c3sc4ccccc4c3c2=O)CC1", "hERG current change (%, negative = inhibition) at 10uM": -20.6}
{"smiles": "CCOC(=O)c1sc(=S)n2c1[nH]c(=O)c1ccc(C(=O)OC)cc12", "hERG current change (%, negative = inhibition) at 10uM": 2.32}
{"smiles": "COc1cc(NC(=O)CSc2nnnn2C2CCCC2)cc(OC)c1", "hERG current change (%, negative = inhibition) at 10uM": 13.6}
{"smiles": "CC(=O)O[C@H]1C(=O)[C@@]2(C)[C@H]([C@H](OC(=O)c3ccccc3)[C@]3(O)C[C@H](OC(=O)[C@H](O)[C@@H](NC(=O)c4ccccc4)c4ccccc4)C(C)=C1C3(C)C)[C@]1(OC(C)=O)CO[C@@H]1C[C@@H]2O", "hERG current change (%, negative = inhibition) at 10uM": 1.26}
{"smiles": "c1ccc(-c2n[nH]nc2-c2ccccc2)cc1", "hERG current change (%, negative = inhibition) at 10uM": -9.09}
{"smiles": "Cc1ccc(S(=O)(=O)N(CC(=O)NCCSc2ccccn2)c2cc(C)cc(C)c2)cc1", "hERG current change (%, negative = inhibition) at 10uM": -12.9}
{"smiles": "O=C(O)c1ccc(CSc2nnc(-c3ccco3)o2)cc1", "hERG current change (%, negative = inhibition) at 10uM": 2.07}
{"smiles": "CCSc1nnc(NC(=O)CSc2nnc(CNC(=O)c3cc(OC)c(OC)c(OC)c3)o2)s1", "hERG current change (%, negative = inhibition) at 10uM": 20}
{"smiles": "O=C(Nc1ccccc1)C1=C[C@@H](c2ccc3c(c2)OCO3)C[C@@H](OCCCCO)O1", "hERG current change (%, negative = inhibition) at 10uM": -9.67}
{"smiles": "S=c1[nH]nc(-c2ccncc2)n1/N=C/C(Cl)=C\\c1ccccc1", "hERG current change (%, negative = inhibition) at 10uM": 23.3}
{"smiles": "O=C(O)COc1ccc(S(=O)(=O)c2ccc(OCC(=O)O)cc2)cc1", "hERG current change (%, negative = inhibition) at 10uM": -1.63}
